In PubChem BioAssay AID1508642 (National Center for Advancing Translational Sciences (NCATS), 2021):
The campaign covered roughly 43,000 compounds. About 200 (0.47%) were called active. The shares of active, inactive and inconclusive entries below differ from those in the screen. Calls come from the whole dose curve; as a rule, active = well fitted cell-killing curve with a large enough effect; inconclusive = small, poorly fitted or top-dose-only effect, or effect the other way; inactive = flat fitted curve, though single readings scatter. Potencies of inconclusive entries are doubtful fits and often do not repeat.

assay: Cell viability qHTS assay in S16 Pmp22-F2sN cells; conditions: S16 Pmp22-F2sN Schwann cells viability, CellTiter-Glo, 24 h; activity change, negative = cytotoxicity: at 57.5 µM (top of the series); note: nearly all actives have a fitted effect of over 65% in size
In short: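 Used to flag compounds lowering reporter output through toxicity, this quantitative HTS measures ATP-based CellTiter-Glo luminescence in S16 Pmp22-F2sN Schwann cells after 24 h compound exposure at 37C.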
% is set by controls: 0 for no effect and ±100 for the full control effect; potency is the fitted concentration of half-maximal effect; tags give direction and shape of the fitted curve.

| Structure (SMILES) | activity change, negative = cytotoxicity | Potency |
| --- | --- | --- |
| COc1ccc(Cn2c(SCc3ccc(C(=O)NC4CCCCC4)cc3)nc3ccncc32)cc1 | inactive: -23.5% |  |
| Cc1nn(C(C)C(=O)NCCc2ccccc2)c(=O)c2c1sc1ccccc12 (stereo not drawn) |  | inconclusive: 39.8 µM [cytotoxic, partial curve, poor fit] |
| Cc1ccc2scc(N3CCCCC3C)c(=O)c2c1 (stereo not drawn) | inactive: 2.78% |  |
| CCCCc1ccc(C(=O)c2c(N)c(C(=O)Nc3cccc(OC)c3)c3ccccn23)cc1 | inactive: 4.63% |  |
| COc1ccc(NC(=O)CSc2nc3ccccc3nc2N2CCOCC2)c(OC)c1 | inactive: -3.03% |  |
| Cc1ccccc1CN1C(=O)c2ccccc2S(=O)c2ccc(C(=O)N3CCOCC3)cc21 (stereo not drawn) |  | inconclusive: 0.562 µM [rising, full curve, poor fit] |
| COc1ccc(C(=O)c2c(N)c(C(=O)Nc3ccccc3Cl)c3ccccn23)cc1 |  | inconclusive: 8.91 µM [cytotoxic, partial curve, poor fit] |
| COc1ccc(CCNC(=O)c2ccc(Cn3c(=O)c4ccccc4n(Cc4cccc(F)c4)c3=O)cc2)cc1OC | inactive: -7.89% |  |
| CCOC(=O)C1CCCN(CC(=O)Nc2cc(C)c3c(=O)oc4ccccc4c3n2)C1 (stereo not drawn) |  | inconclusive: 17.8 µM [rising, partial curve, poor fit] |
| Cc1ccc(CNC(=O)c2ccc(Cn3c(=O)c4ccccc4n(CC(=O)Nc4c(C)cc(C)cc4C)c3=O)cc2)cc1 |  | inconclusive: 7.94 µM [rising, partial curve, poor fit] |
| COc1cccc(-c2cn3ncsc3n2)c1 |  | inconclusive: 4.47 µM [cytotoxic, single point] |
| CCc1ccc(CNC(=O)C2CCCN(S(=O)(=O)c3ccc4c(ccn4C)c3)C2)cc1 (stereo not drawn) |  | inconclusive: 35.5 µM [cytotoxic, partial curve, poor fit] |
| Cc1cccc(C(C)C)c1NC(=O)C(NS(=O)(=O)c1cccc2nsnc12)c1ccccc1 (stereo not drawn) |  | inconclusive: 0.794 µM [cytotoxic, full curve, poor fit] |
| CCOc1ccc(Nc2oc(/C=C/c3cccc(OC)c3)nc2C#N)cc1 |  | inconclusive: 25.1 µM [rising, single point] |
| Cc1ccc(CNS(=O)(=O)c2cc3c(cc2Cl)NC(=O)CO3)o1 | inactive: -2.21% |  |
| COc1ccccc1C(=O)Nc1ccc(C(=O)OCc2cc(=O)n3nc(C)sc3n2)cc1 |  | inconclusive: 39.8 µM [cytotoxic, single point] |
| CC(C)(C)c1ccc(C(=O)NCC(c2cccnc2)N2CCc3ccccc3C2)cc1 (stereo not drawn) |  | inconclusive: 39.8 µM [cytotoxic, single point] |
| CCN(C(=O)C1CCN(S(=O)(=O)c2cc(Br)cc3c2N(C(C)=O)CC3)CC1)c1cccc(C)c1 |  | inconclusive: 15.8 µM [cytotoxic, partial curve] |
| COc1ccc(-c2cnc(C)o2)cc1S(=O)(=O)Nc1ccc(NC(C)=O)cc1 |  | inconclusive: 31.6 µM [cytotoxic, single point] |
| CC(CCc1ccccc1)NC(=O)Cn1ncc2c3ccccc3n(Cc3ccccc3F)c2c1=O (stereo not drawn) |  | inconclusive: 31.6 µM [cytotoxic, single point] |
| CCN(Cc1ccccc1)C(=O)Cn1c(=O)n(-c2ccccc2)c(=O)c2c1c1cc(C)ccc1n2C |  | inconclusive: 10 µM [rising, partial curve] |

| Structure (SMILES) | activity change, negative = cytotoxicity | Potency |
| --- | --- | --- |
| CCc1ccc(CSc2nc(-c3ccccc3F)nc3c2Cc2c(CO)cnc(C)c2O3)cc1 |  | inconclusive: 39.8 µM [cytotoxic, single point] |
| Cc1cc(C)cc(NC(=O)CSc2nc3c(c(=O)[nH]2)CN(Cc2ccc(F)cc2)CC3)c1 | inactive: 0.036% |  |
| CCNC(=O)c1ccc(NC(=O)N2CCCCc3ccccc32)cc1 |  | inconclusive: 0.316 µM [rising, full curve, poor fit] |
| CCn1cc2nc(SCC(=O)Nc3cc(OC)cc(OC)c3)n(Cc3ccc(Cl)cc3)c(=O)c2n1 |  | inconclusive: 11.2 µM [rising, partial curve, poor fit] |
| Cc1cc(C)c(Nc2ncnc3c2cnn3C)c(C)c1 |  | inconclusive: 10 µM [cytotoxic, partial curve, poor fit] |
| O=C(/C=C/c1ccccc1Cl)N1CCC(c2nc3ccccc3o2)CC1 |  | inconclusive: 28.2 µM [cytotoxic, single point] |
| COc1cc(-c2noc(-c3ccc(NCC4CCCO4)c([N+](=O)[O-])c3)n2)cc(OC)c1OC (stereo not drawn) |  | inconclusive: 7.08 µM [cytotoxic, single point] |
| Cc1nc2cc(-c3ccccc3)nn2c(C)c1CCC(=O)Nc1ccc(F)cc1F |  | inconclusive: 31.6 µM [cytotoxic, single point] |
| Cc1cccc(NS(=O)(=O)c2ccc3c(c2)CC(C)N3C(=O)C2CCC2)c1C (stereo not drawn) |  | inconclusive: 31.6 µM [cytotoxic, partial curve, poor fit] |
| CCN(CC)c1ccc(NC(=O)c2cnn(-c3ccccc3)c2-n2cccc2)c(C)c1 |  | inconclusive: 39.8 µM [cytotoxic, single point] |
| COc1ccc(-n2nnnc2C2CCN(S(=O)(=O)c3ccc(NC(C)=O)cc3)CC2)cc1 |  | inconclusive: 3.98 µM [cytotoxic, partial curve, poor fit] |
| Cc1ccccc1NC(=O)CSc1nc2ccccc2c2nc(CCn3cncc3C)nn12 |  | inconclusive: 0.251 µM [cytotoxic, full curve, poor fit] |
| O=c1nc2sc3ccccc3n2c(=O)n1-c1ccc(Cl)c(Cl)c1 |  | inconclusive: 39.8 µM [cytotoxic, single point] |
| O=C(CCC1N=C2c3ccccc3N=C(SCC(=O)Nc3ccccc3F)N2C1=O)NCc1ccccc1 (stereo not drawn) | inactive: -0.0531% |  |
| COc1cc(-c2nc3nc[nH]n3c2Nc2ccc(C(C)C)cc2)ccc1O | inactive: -0.152% |  |
| Cc1ccc(C)n1-c1c(C(=O)NCCC(C)C)sc2ncccc12 |  | inconclusive: 39.8 µM [cytotoxic, single point] |
| Cc1ccn2c(Nc3ccccc3C)c(-c3ccccn3)nc2c1 |  | inconclusive: 1.78 µM [cytotoxic, partial curve, poor fit] |
| COc1cc(NC(=O)c2noc3c2CSc2ccccc2-3)cc(OC)c1OC |  | inconclusive: 31.6 µM [cytotoxic, single point] |
| CCn1c(=O)n(CC)c2cc(N3CCCCC3)c(NC(=O)Nc3cc(C)cc(C)c3)cc21 | inactive: -1.43% |  |
| Cc1c(Cl)cccc1-c1ccc(CNc2ccc3[nH]c(=O)[nH]c3c2)o1 |  | inconclusive: 35.5 µM [cytotoxic, single point] |
| COc1ccc(NC(=O)c2oc3ccccc3c2NC(=O)c2cccc(F)c2)c(OC)c1 | inactive: 19.1% |  |

| Structure (SMILES) | activity change, negative = cytotoxicity | Potency |
| --- | --- | --- |
| COc1cc2ccccc2cc1C(=O)Nc1ccc2oc(-c3ccc(F)cc3)nc2c1 |  | inconclusive: 22.4 µM [rising, single point] |
| CCN(Cc1ccccc1)C(=O)c1c(C)oc2ncn(C)c(=O)c12 | inactive: 18.2% |  |
| COc1ccc(-n2ccnc(NCc3ccc(Cl)cc3)c2=O)cc1 |  | inconclusive: 1.78 µM [rising, full curve, poor fit] |
| COc1ccc(-n2nc3ccc(NC(=O)c4ccc(-c5cc(Cl)ccc5Cl)o4)cc3n2)cc1 |  | inconclusive: 14.1 µM [rising, partial curve, poor fit] |
| COc1ccc(-n2c(/C=C/c3ccccc3F)nc3cc(OC)c(OC)cc3c2=O)cc1Cl |  | active: 10 µM |
| CCN(CC)C(=O)C1CCN(S(=O)(=O)c2ccc3c(c2)CCCN3C(C)=O)CC1 |  | inconclusive: 2.82 µM [cytotoxic, full curve] |
| Cc1ccc(NC(=O)CSc2ncc3c(n2)-c2ccccc2N(Cc2cccc(F)c2)S3(=O)=O)cc1F |  | inconclusive: 0.0224 µM [rising, full curve] |
| Cc1ccc(N2CC(NC(=O)/C=C\c3ccc4c(c3)OCO4)CC2=O)cc1C (stereo not drawn) |  | inconclusive: 0.178 µM [rising, full curve] |
| Cc1nn(C(=O)c2cccc([N+](=O)[O-])c2C)c(C)c1S(=O)(=O)N1CCOCC1 | inactive: 1.04% |  |
| CC(C)c1ccc(S(=O)(=O)c2nnn3c2nc(NCCc2ccccc2)c2sccc23)cc1 |  | inconclusive: 28.2 µM [cytotoxic, single point] |
| Cc1cc(C)cc(Oc2nc3c(C)cccn3c(=O)c2/C=C(\C#N)c2nc3ccccc3[nH]2)c1 | inactive: 0.479% |  |
| c1ccc(-n2ncc3c(NC4CCCC4)ncnc32)cc1 | inactive: 18.1% |  |
| CCc1cccc(NC(=O)Nc2ccc3c(c2)N(C)C(=O)c2ccccc2S3)c1 |  | inconclusive: 31.6 µM [cytotoxic, single point] |
| Cc1ccc(NC(=O)Cc2c(C(=O)O)c(C)cn2C)cc1Cl | inactive: 9.08% |  |
| Cc1cccc(CNC(=O)c2oc3c(c2C)-c2nn(Cc4ccccc4Cl)cc2CC3)c1 |  | inconclusive: 14.1 µM [cytotoxic, partial curve] |
| COc1ccc(NC(=O)C(NS(=O)(=O)c2ccc3c(c2)CCCC(=O)N3)C(C)C)c(OC)c1 (stereo not drawn) |  | inconclusive: 11.2 µM [cytotoxic, partial curve, poor fit] |
| Cc1ccc(Cn2c(=O)c3cccnc3n(CC(=O)Nc3cccc(C(F)(F)F)c3)c2=O)cc1 | inactive: -7.81% |  |
| CC(C)CCNC(=O)c1cccc(Nc2nc3ccccc3n3nnnc23)c1 |  | active: 20 µM |
| Cc1ccc(NC(=O)c2cc(S(=O)(=O)NCCC3=CCCCC3)ccc2F)cc1F |  | inconclusive: 8.91 µM [cytotoxic, full curve, poor fit] |
| Cc1cc(NC(=O)c2ccc(Br)o2)cc(-c2nc3ccccc3o2)c1O |  | inconclusive: 39.8 µM [rising, single point] |
| CCOC(=O)c1ccccc1NC(=O)CSc1cn(CC(=O)N2CCCCC2)c2ccccc12 | inactive: 9.65% |  |
